# The other results are listed elsewhere or left out.
# B1: Tamarinin (protein)
# chain: CDDSARAGNIVVYWGQGGSDNSEGSLKEACKSGHYNMIVLQQLIVYDDGRDPDLNLGAHCSDCTKLEEQIKYCQNKDIKILLQIGQVVPTQEDVKDVTKNLSEYLLKNFFSGKSGPLGEVYLNGIDIASVPEGNNLKFDELVEALNDSSTERRIYLSASPLCVYPDYYLNKAIQTEKLDFLFVQFFYQNPCIYTEGNPENLFEAMKTWTKNVPESMIFMALPATPNLDGYIPPRVLNKEILPAVSEASNFAGVMIFDRYFDRFRKYSSKIK
# Tests used:
# Test in all cases: glycan array binding signal (z-score within array); higher = stronger binding
# Conditions in all cases: glycan notation: IUPAC condensed, linker removed
# [1] = target: Gal(b1-4)GlcNAc(b1-3)Gal(b1-4)GlcNAc(b1-6)[Gal(b1-3)]GalNAc
# Procedure, shortened: (§1)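 Glycan array data came from 3228 arrays in the Consortium for Functional Glycomics database, and only arrays with an available protein sequence were kept. Glycan names were put into IUPAC-condensed notation, and columns mapping to the same glycan were averaged. The binding signal is a within-array Z-score, averaged across arrays of one protein sequence run at different concentrations or buffers and across linkers. A negative Z-score can be read as non-binding.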
# [2] = target: Gal(b1-4)GlcNAc(b1-3)Gal(b1-4)[Fuc(a1-3)]GlcNAc(b1-3)Gal(b1-4)[Fuc(a1-3)]GlcNAc
# Procedure, shortened: as §1
# [3] = target: Gal(b1-4)GlcNAc(b1-3)GalNAc
# Procedure, shortened: as §1
# [4] = target: Gal(b1-4)GlcNAc(b1-3)[Fuc(a1-3)GlcNAc(b1-6)]Gal(b1-4)Glc
# Procedure, shortened: as §1
# [5] = target: Gal(b1-4)GlcNAc(b1-3)[Gal(b1-4)GlcNAc(b1-6)]Gal(b1-4)GlcNAc
# Procedure, shortened: as §1
# [6] = target: Gal(b1-4)GlcNAc(b1-3)[GlcNAc(b1-6)]Gal(b1-4)GlcNAc
# Procedure, shortened: as §1
# [7] = target: Gal(b1-4)GlcNAc(b1-6)Gal(b1-4)GlcNAc
# Procedure, shortened: as §1
# [8] = target: Gal(b1-4)GlcNAc(b1-6)GalNAc
# Procedure, shortened: as §1
# [9] = target: Gal(b1-4)GlcNAc(b1-6)[Gal(b1-3)]GalNAc
# Procedure, shortened: as §1
# [10] = target: Gal(b1-4)GlcNAc(b1-6)[Gal(b1-4)GlcNAc(b1-3)]GalNAc
# Procedure, shortened: as §1
# [11] = target: Gal(b1-4)GlcNAc6P
# Procedure, shortened: as §1
# [12] = target: Gal(b1-6)Gal
# Procedure, shortened: as §1
# [13] = target: Gal3S(b1-3)GalNAc
# Procedure, shortened: as §1
# [14] = target: Gal3S(b1-3)GlcNAc
# Procedure, shortened: as §1
# [15] = target: Gal3S(b1-3)[Fuc(a1-4)]GlcNAc
# Procedure, shortened: as §1
# [16] = target: Gal3S(b1-4)Glc
# Procedure, shortened: as §1
# [17] = target: Gal3S(b1-4)Glc6S
# Procedure, shortened: as §1
# [18] = target: Gal3S(b1-4)GlcNAc
# Procedure, shortened: as §1
# [19] = target: Gal3S(b1-4)[Fuc(a1-3)]Glc6S
# Procedure, shortened: as §1
# [20] = target: Gal3S(b1-4)[Fuc(a1-3)]GlcNAc
# Procedure, shortened: as §1
# [21] = target: Gal3S(b1-4)[Fuc(a1-3)]GlcNAc6S
# Procedure, shortened: as §1
# [22] = target: Gal3S4S(b1-4)GlcNAc
# Procedure, shortened: as §1
# [23] = target: Gal3S6S(b1-4)GlcNAc
# Procedure, shortened: as §1
# [24] = target: Gal3S6S(b1-4)GlcNAc6S
# Procedure, shortened: as §1
# [25] = target: Gal4S(b1-4)GlcNAc
# Procedure, shortened: as §1
# [26] = target: Gal4S6S(b1-4)GlcNAc
# Procedure, shortened: as §1
# [27] = target: Gal6P(b1-4)GlcNAc
# Procedure, shortened: as §1
# [28] = target: Gal6S(b1-3)GlcNAc
# Procedure, shortened: as §1
# [29] = target: Gal6S(b1-3)GlcNAc6S
# Procedure, shortened: as §1
# [30] = target: Gal6S(b1-4)Glc
# Procedure, shortened: as §1
# [31] = target: Gal6S(b1-4)Glc6S
# Procedure, shortened: as §1
# [32] = target: Gal6S(b1-4)GlcNAc
# Procedure, shortened: as §1
# [33] = target: Gal6S(b1-4)GlcNAc6S
# Procedure, shortened: as §1
# [34] = target: GalNAc(a1-3)Gal
# Procedure, shortened: as §1
# [35] = target: GalNAc(a1-3)GalNAc
# Procedure, shortened: as §1
# [36] = target: GalNAc(a1-3)GalNAc(b1-3)Gal(a1-4)Gal(b1-4)Glc
# Procedure, shortened: as §1
# [37] = target: GalNAc(a1-3)GalNAc(b1-3)Gal(a1-4)Gal(b1-4)GlcNAc
# Procedure, shortened: as §1
# [38] = target: GalNAc(b1-3)Gal
# Procedure, shortened: as §1
# [39] = target: GalNAc(b1-3)Gal(a1-4)Gal(b1-4)GlcNAc
# Procedure, shortened: as §1
# [40] = target: GalNAc(b1-3)Gal(a1-4)Gal(b1-4)GlcNAc(b1-3)Gal(b1-4)Glc
# Procedure, shortened: as §1
# [41] = target: GalNAc(b1-3)Gal(a1-6)Gal(b1-4)Glc
# Procedure, shortened: as §1
# [42] = target: GalNAc(b1-3)GalNAc
# Procedure, shortened: as §1
# [43] = target: GalNAc(b1-3)GlcNAc
# Procedure, shortened: as §1
# [44] = target: GalNAc(b1-4)Gal(b1-4)Glc
# Procedure, shortened: as §1
# [45] = target: GalNAc(b1-4)GlcNAc
# Procedure, shortened: as §1
# [46] = target: GalNAc(b1-4)GlcNAc(b1-2)Man
# Procedure, shortened: as §1
# [47] = target: GalNAc(b1-4)GlcNAc(b1-2)Man(a1-3)[GalNAc(b1-4)GlcNAc(b1-2)Man(a1-6)]Man(b1-4)GlcNAc(b1-4)GlcNAc
# Procedure, shortened: as §1
# [48] = target: GalNAc(b1-4)GlcNAc(b1-3)GalNAc(b1-4)GlcNAc
# Procedure, shortened: as §1
# [49] = target: GalNAc(b1-4)GlcNAc6S
# Procedure, shortened: as §1
# [50] = target: GalNAc(b1-6)GalNAc
# Procedure, shortened: as §1
# [51] = target: GalNAc3S(b1-4)GlcNAc
# Procedure, shortened: as §1
# [52] = target: GalNAc3S(b1-4)GlcNAc3S
# Procedure, shortened: as §1
# [53] = target: GalNAc3S(b1-4)[Fuc(a1-3)]GlcNAc
# Procedure, shortened: as §1
# [54] = target: GalNAc4S6S(b1-4)GlcNAc
# Procedure, shortened: as §1
# [55] = target: GalNAc6S(b1-4)GlcNAc
# Procedure, shortened: as §1
# [56] = target: Glc(a1-4)Glc
# Procedure, shortened: as §1
# [57] = target: Glc(a1-4)Glc(a1-4)Glc(a1-4)Glc
# Procedure, shortened: as §1
# [58] = target: Glc(a1-6)Glc(a1-6)Glc
# Procedure, shortened: as §1
# [59] = target: Glc(a1-6)Glc(a1-6)Glc(a1-6)Glc
# Procedure, shortened: as §1
# [60] = target: Glc(b1-4)Glc
# Procedure, shortened: as §1
# [61] = target: Glc(b1-6)Glc
# Procedure, shortened: as §1
# [62] = target: GlcA(b1-3)Gal
# Procedure, shortened: as §1
# [63] = target: GlcA(b1-3)GlcNAc
# Procedure, shortened: as §1
# [64] = target: GlcA(b1-6)Gal
# Procedure, shortened: as §1
# [65] = target: GlcA3S(b1-3)Gal(b1-4)GlcNAc(b1-2)Man
# Procedure, shortened: as §1
# [66] = target: GlcA3S(b1-3)Gal(b1-4)GlcNAc(b1-3)Gal(b1-4)Glc
# Procedure, shortened: as §1
# [67] = target: GlcNAc(a1-3)Gal(b1-4)GlcNAc
# Procedure, shortened: as §1
# [68] = target: GlcNAc(a1-4)Gal(b1-3)GlcNAc
# Procedure, shortened: as §1
# [69] = target: GlcNAc(a1-4)Gal(b1-4)GalNAc
# Procedure, shortened: as §1
# [70] = target: GlcNAc(a1-4)Gal(b1-4)GlcNAc
# Procedure, shortened: as §1
# [71] = target: GlcNAc(a1-4)Gal(b1-4)GlcNAc(b1-3)Gal(b1-4)Glc
# Procedure, shortened: as §1
# [72] = target: GlcNAc(a1-4)Gal(b1-4)GlcNAc(b1-3)Gal(b1-4)GlcNAc
# Procedure, shortened: as §1
# [73] = target: GlcNAc(a1-4)Gal(b1-4)GlcNAc(b1-3)Gal(b1-4)GlcNAc(b1-3)Gal(b1-4)GlcNAc
# Procedure, shortened: as §1
# [74] = target: GlcNAc(a1-4)Gal(b1-4)GlcNAc(b1-3)Gal(b1-4)[Fuc(a1-3)]GlcNAc(b1-3)Gal(b1-4)[Fuc(a1-3)]GlcNAc
# Procedure, shortened: as §1
# [75] = target: GlcNAc(a1-6)Gal(b1-4)GlcNAc
# Procedure, shortened: as §1
binder,measurement,setting,value
B1,glycan array binding signal (z-score),[1],-0.014
same,glycan array binding signal (z-score),[2],-0.173
same,glycan array binding signal (z-score),[3],-0.386
same,glycan array binding signal (z-score),[4],-0.345
same,glycan array binding signal (z-score),[5],-0.421
same,glycan array binding signal (z-score),[6],-0.194
same,glycan array binding signal (z-score),[7],-0.431
same,glycan array binding signal (z-score),[8],0.245
same,glycan array binding signal (z-score),[9],-0.304
same,glycan array binding signal (z-score),[10],-0.282
same,glycan array binding signal (z-score),[11],-0.209
same,glycan array binding signal (z-score),[12],0.305
same,glycan array binding signal (z-score),[13],-0.036
same,glycan array binding signal (z-score),[14],0.068
same,glycan array binding signal (z-score),[15],-0.217
same,glycan array binding signal (z-score),[16],-0.021
same,glycan array binding signal (z-score),[17],-0.234
same,glycan array binding signal (z-score),[18],-0.251
same,glycan array binding signal (z-score),[19],-0.238
same,glycan array binding signal (z-score),[20],-0.314
same,glycan array binding signal (z-score),[21],-0.281
same,glycan array binding signal (z-score),[22],0.071
same,glycan array binding signal (z-score),[23],-0.214
same,glycan array binding signal (z-score),[24],-0.445
same,glycan array binding signal (z-score),[25],-0.322
same,glycan array binding signal (z-score),[26],-0.333
same,glycan array binding signal (z-score),[27],0.286
same,glycan array binding signal (z-score),[28],-0.187
same,glycan array binding signal (z-score),[29],0.14
same,glycan array binding signal (z-score),[30],-0.253
same,glycan array binding signal (z-score),[31],-0.122
same,glycan array binding signal (z-score),[32],0.523
same,glycan array binding signal (z-score),[33],-0.214
same,glycan array binding signal (z-score),[34],-0.183
same,glycan array binding signal (z-score),[35],-0.405
same,glycan array binding signal (z-score),[36],-0.418
same,glycan array binding signal (z-score),[37],-0.138
same,glycan array binding signal (z-score),[38],-0.225
same,glycan array binding signal (z-score),[39],-0.378
same,glycan array binding signal (z-score),[40],0.245
same,glycan array binding signal (z-score),[41],-0.326
same,glycan array binding signal (z-score),[42],-0.342
same,glycan array binding signal (z-score),[43],-0.214
same,glycan array binding signal (z-score),[44],1.94
same,glycan array binding signal (z-score),[45],0.335
same,glycan array binding signal (z-score),[46],-0.349
same,glycan array binding signal (z-score),[47],-0.233
same,glycan array binding signal (z-score),[48],1.9
same,glycan array binding signal (z-score),[49],0.687
same,glycan array binding signal (z-score),[50],-0.131
same,glycan array binding signal (z-score),[51],2.59
same,glycan array binding signal (z-score),[52],-0.245
same,glycan array binding signal (z-score),[53],-0.228
same,glycan array binding signal (z-score),[54],-0.001
same,glycan array binding signal (z-score),[55],2.4
same,glycan array binding signal (z-score),[56],-0.187
same,glycan array binding signal (z-score),[57],-0.232
same,glycan array binding signal (z-score),[58],-0.034
same,glycan array binding signal (z-score),[59],0.415
same,glycan array binding signal (z-score),[60],-0.043
same,glycan array binding signal (z-score),[61],-0.074
same,glycan array binding signal (z-score),[62],-0.029
same,glycan array binding signal (z-score),[63],0.701
same,glycan array binding signal (z-score),[64],0.165
same,glycan array binding signal (z-score),[65],-0.362
same,glycan array binding signal (z-score),[66],1.34
same,glycan array binding signal (z-score),[67],-0.318
same,glycan array binding signal (z-score),[68],-0.351
same,glycan array binding signal (z-score),[69],-0.193
same,glycan array binding signal (z-score),[70],-0.431
same,glycan array binding signal (z-score),[71],-0.182
same,glycan array binding signal (z-score),[72],-0.386
same,glycan array binding signal (z-score),[73],-0.44
same,glycan array binding signal (z-score),[74],0.824
same,glycan array binding signal (z-score),[75],0.193

# From the supplement of paper PMC8728848
